Values joined by “and” are separate entries in the source; they are usually repeats but may differ in a detail not shown here. Equal entries are not always repeated. Screen size: about 3,200 compounds; about 300 (9.4%) showed activity. Only a part is listed here, and it is no random draw.
System: A673/TR/shEF
Assay: cell viability (LOESS-normalised, relative to median of negative controls) (log2 ratio); higher = more viable cells (less compound effect), active = hit call of the paper (over 3 MAD below the median)
Conditions: treatment time: 72 h
Procedure, shortened: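 Doxycycline, present or absent from 24 h before compounds, was used to induce EWS-FLI1 shRNA knockdown in A673/TR/shEF Ewing sarcoma cells at 1,500 per well in 384-well plates. Cells then received library compounds at two or more concentrations, or DMSO controls, for three days. Viability was measured by CellTiter-Glo luminescence on an Envision reader, and per-plate LOESS correction, division by the negative-control median and log2 transformation followed.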

[1] = 0.25 µM, library screen: screen1, EWS-FLI1 expression: high (no doxycycline)
[2] = 0.25 µM, library screen: screen1, EWS-FLI1 expression: low (doxycycline-induced shRNA knockdown)
[3] = 2.5 µM, library screen: screen1, EWS-FLI1 expression: high (no doxycycline)
[4] = 2.5 µM, library screen: screen1, EWS-FLI1 expression: low (doxycycline-induced shRNA knockdown)
[5] = 0.25 µM, library screen: screen2, EWS-FLI1 expression: high (no doxycycline)
[6] = 0.25 µM, library screen: screen2, EWS-FLI1 expression: low (doxycycline-induced shRNA knockdown)
[7] = 2.5 µM, library screen: screen2, EWS-FLI1 expression: high (no doxycycline)
[8] = 2.5 µM, library screen: screen2, EWS-FLI1 expression: low (doxycycline-induced shRNA knockdown)
[9] = 8.3 µM, library screen: screen3, EWS-FLI1 expression: high (no doxycycline)
[10] = 25 µM, library screen: screen3, EWS-FLI1 expression: high (no doxycycline)

Measured: cell viability (log2)

COC(C)(C)CCCC(C)C/C=C/C(C)=C/C(=O)OC(C)C (stereo unspecified)
inactive: [1] -0.00169 | [2] 0.0238 | [3] 0.116 | [4] 0.0204

CC(C)[N+](C)(CCC(C(N)=O)(c1ccccc1)c1ccccc1)C(C)C
inactive: [1] 0.109 | [2] -0.026 | [3] 0.23 | [4] 0.0352

CC1=C[C@@H]2c3cccc4[nH]cc(c34)C[C@H]2N(C)C1
inactive: [5] 0.126 | [6] 0.0939 | [7] 0.18 | [8] 0.0817

C#C[C@]1(O)CC[C@H]2[C@@H]3CCC4=CC(=O)CC[C@]4(C)[C@H]3CC[C@@]21C
inactive: [1] 0.0673 | [2] 0.126 | [3] 0.0646 | [4] 0.0208

COP(=S)(OC)SCn1nnc2ccccc2c1=O
active: [9] -0.267 | [10] -0.422

COP(=S)(OC)Oc1ccc(SC)c(C)c1
inactive: [1] 0.104 | [2] 0.089 | [3] 0.0562 | [4] 0.116

O=c1[nH]c2ccccc2n1CCCN1CCC(n2c(=O)[nH]c3cc(Cl)ccc32)CC1
inactive: 0.103 µM, library screen: screen3, EWS-FLI1 expression: high (no doxycycline) -0.00347 | 0.103 µM, library screen: screen3, EWS-FLI1 expression: low (doxycycline-induced shRNA knockdown) 0.0546 | [1] 0.0477 | [2] 0.0315 | [5] 0.114 | [6] 0.0927 | 0.308 µM, library screen: screen3, EWS-FLI1 expression: high (no doxycycline) -0.044 | 0.308 µM, library screen: screen3, EWS-FLI1 expression: low (doxycycline-induced shRNA knockdown) 0.0558 | 0.926 µM, library screen: screen3, EWS-FLI1 expression: high (no doxycycline) -0.0666 | 0.926 µM, library screen: screen3, EWS-FLI1 expression: low (doxycycline-induced shRNA knockdown) -0.0372 | [3] 0.086 | [4] 0.163 | [7] 0.143 | [8] 0.121 | 2.8 µM, library screen: screen3, EWS-FLI1 expression: high (no doxycycline) -0.00881 | 2.8 µM, library screen: screen3, EWS-FLI1 expression: low (doxycycline-induced shRNA knockdown) 0.00821 | [9] 0.0255 | 8.3 µM, library screen: screen3, EWS-FLI1 expression: low (doxycycline-induced shRNA knockdown) 0.0576 | [10] -0.0563 | 25 µM, library screen: screen3, EWS-FLI1 expression: low (doxycycline-induced shRNA knockdown) -0.037

C[C@]12CCC(=O)C=C1C=CC1C2CC[C@@]2(C)C1CC[C@@]2(O)CCC(=O)O (stereo partly specified)
inactive: [1] 0.0813 | [2] -0.0168 | [3] 0.15 | [4] -0.00183

CC(=O)Oc1c2c(c(CC=C(C)C)c3c1C(=O)C1=C[C@@H]4CC5C(C)(C)OC(C/C=C(\C)C(=O)O)(C4=O)[C@@]15O3)OC(C)(CCC=C(C)C)C=C2 (stereo partly specified)
inactive: [1] 0.0664 | [2] 0.0597 | [3] -0.0173 | [4] 0.269

O=[N+]([O-])c1ccc2nc(N3CCNCC3)ccc2c1
inactive: [5] 0.232 | [6] 0.0568 | [7] 0.304 | [8] 0.0795

c1ccc2c(N3CCNCC3)cccc2c1
active: [7] -0.803 | [8] -0.746
inactive: [5] 0.144 | [6] -0.113

c1cc2c(cc1[C@H]1OC[C@H]3[C@@H]1CO[C@@H]3c1ccc3c(c1)OCO3)OCO2
inactive: [1] 0.0516 | [2] 0.00549 | [3] 0.0823 | [4] 0.0252

Nc1ccc2c(n1)[nH]c1ccccc12
inactive: [5] 0.156 | [6] 0.0674 | [7] 0.0702 | [8] 0.0934

CC(C)=CCCC1(C)C=Cc2c(O)c3c(c(CC=C(C)C)c2O1)OC12C(CC4CC1C(C)(C)OC2(C/C=C(/C)C(=O)O)C4O)C3=O (stereo unspecified)
inactive: [1] 0.0661 | [2] 0.00238 | [3] 0.127 | [4] 0.0888

CCCN(CCC)CCc1c[nH]c2ccc(C(N)=O)cc12
inactive: [5] 0.0974 | [6] 0.0364 | [7] 0.198 | [8] 0.0861

COc1cc(C[C@@H](C)N)c(OC)cc1I
inactive: [5] 0.178 | [6] 0.0876 | [7] 0.142 | [8] 0.145

C=CCN1C[C@@H](C)N([C@H](c2ccc(C(=O)N(CC)CC)cc2)c2cccc(OC)c2)C[C@@H]1C
inactive: [5] 0.0848 | [6] 0.0464 | [7] 0.222 | [8] 0.00445

CN1[C@@H]2CC[C@H]1CC(OC(=O)[C@H](CO)c1ccccc1)C2 (stereo partly specified)
inactive: [1] 0.0597 | [2] -0.0491 | [5] 0.249 | [6] 0.0903 | [3] 0.131 | [4] 0.0464 | [7] 0.139 | [8] 0.132

C=C(C)[C@H]1CN[C@H](C(=O)O)[C@H]1CC(=O)O
inactive: [1] 0.0504 | [2] -0.013 | [5] 0.231 | [6] 0.11 | [3] 0.153 | [4] -0.00319 | [7] 0.0794 | [8] -0.00687

NC1CC1c1ccccc1 (stereo unspecified)
inactive: [1] 0.107 | [2] 0.128 | [3] 0.188 | [4] 0.0868

Cc1cccc(CN2CCN(Cc3ccc(F)cc3)CC2)c1
inactive: [1] 0.0688 | [2] 0.0518 | [3] 0.143 | [4] 0.0989

CC(=O)O[C@H]1C[C@@H](OC(C)=O)C(C)(C)C2C[C@@H](OC(C)=O)[C@]3(C)C(CC[C@@]4(C)[C@H](c5ccoc5)C(=O)[C@H]5O[C@]543)[C@]21C (stereo partly specified)
inactive: [1] 0.0663 | [2] 0.135 | [3] 0.0399 | [4] 0.171

N[C@@H](Cn1ccc(=O)[nH]c1=O)C(=O)O
inactive: [5] 0.256 | [6] -0.00427 | [7] 0.176 | [8] 0.041

CCCN(CCC)c1c([N+](=O)[O-])cc(C(F)(F)F)cc1[N+](=O)[O-]
inactive: [1] -0.0384 | [2] 0.0507 | [3] 0.104 | [4] 0.107

CC12CCC3C(CCC4=C(O)C(=O)CCC43C)C1CCC2=O (stereo unspecified)
inactive: [5] 0.133 | [6] 0.16 | [7] 0.095 | [8] 0.142

Cc1cc(O)ccc1Cl
inactive: [1] 0.0343 | [2] 0.147 | [3] 0.121 | [4] 0.0456

O=[N+]([O-])c1cc(O)c(O)c([N+](=O)[O-])c1
inactive: [1] 0.0922 | [2] 0.102 | [5] 0.101 | [6] 0.11 | [3] 0.0178 | [4] 0.0631 | [7] 0.139 | [8] 0.0735

CN[C@@H]1C[C@@H](c2ccc(Cl)c(Cl)c2)c2ccccc21
inactive: [5] 0.0875 | [6] 0.13 | [7] 0.173 | [8] 0.199

COC1C[C@H](O[C@H]2CC[C@]3(C)C4CC[C@]5(C)[C@@H](C6=CC(=O)OC6)CC[C@]5(O)C4CC[C@]3(O)C2)OC(C)[C@H]1O (stereo partly specified)
active: [1] -0.209 | [2] -0.262 | [3] -3.79 | [4] -2.17

NCCc1ccc(S(=O)(=O)F)cc1
inactive: [6] 0.067 | [7] -0.0377 | [8] 0.0161
active: [5] -0.0889

CCOP(=S)(OCC)SCSP(=S)(OCC)OCC
inactive: [1] 0.0176 | [2] 0.0157 | [3] 0.0447 | [4] 0.0694

C[C@H](N)[C@H](O)c1ccc(O)c(O)c1
inactive: [1] 0.0607 | [2] 0.115 | [3] 0.154 | [4] 0.141

CC[C@@]1(O)C[C@H](O[C@H]2C[C@H](N(C)C)[C@H](O)[C@H](C)O2)c2c(cc3c(c2O)C(=O)c2c(O)cccc2C3=O)[C@H]1C(=O)OC
active: [3] -1.99 and -0.594 | [4] -0.405 and -0.193

CC(C)N(CCC(C(N)=O)(c1ccccc1)c1ccccn1)C(C)C (stereo unspecified)
inactive: [1] 0.118 | [2] 0.068 | [5] 0.102 | [6] 0.0965 | [3] 0.167 | [4] 0.146 | [7] 0.0737 | [8] 0.0918

COC(=O)/C(C)=C\CC12OC(C)(C)C3CC(C=C4C(=O)c5c(OC)c6c(c(CC=C(C)C)c5OC431)OC(C)(CCC=C(C)C)C=C6)C2=O (stereo unspecified)
active: [3] -4.2 | [4] -3.74

OC1CCCCC1N1CCC(c2ccccc2)CC1 (stereo unspecified)
inactive: [1] 0.0599 | [2] 0.121 | [5] 0.0428 | [6] 0.0615 | [3] 0.141 | [4] 0.21 | [7] 0.252 | [8] 0.0803

N[C@@H](Cc1ccc(N(CCCl)CCCl)cc1)C(=O)O
inactive: [1] 0.0874 | [2] 0.0161 | [5] 0.175 | [6] 0.17 | [3] 0.00755 | [4] 0.0488 | [7] 0.22 | [8] 0.172

CCN1C[C@]2(C)CC[C@H](OC)[C@@]34C1[C@]1(OCO[C@@]15C[C@H](OC)[C@H]1C[C@]3(O)[C@@H]5[C@H]1OC)[C@@H](OC(C)=O)[C@H]24
inactive: [1] 0.0895 | [2] 0.0208 | [3] 0.12 | [4] 0.0444

CC(C)=CCOc1c2occc2cc2ccc(=O)oc12
inactive: [1] 0.059 | [2] 0.0156 | [3] 0.0916 | [4] -0.0403

CN1C[C@H](C(=O)N[C@]2(C)O[C@@]3(O)[C@@H]4CCCN4C(=O)[C@H](Cc4ccccc4)N3C2=O)C[C@@H]2c3cccc4[nH]cc(c34)C[C@H]21
inactive: [1] 0.0326 | [2] -0.00656 | [5] 0.184 | [6] -0.00377 | [3] 0.134 | [4] 0.0537 | [7] 0.0731 | [8] 0.0543

O=C1NCN(c2ccccc2)C12CCN(CC1COc3ccccc3O1)CC2 (stereo unspecified)
inactive: [5] 0.177 | [6] 0.0806 | [7] 0.104 | [8] 0.0692

CC(C)OC(=O)Nc1cccc(Cl)c1
inactive: [1] 0.0318 | [2] 0.0622 | [3] 0.14 | [4] 0.113

Reference: the supplement of paper PMC6089552
